Results as given in PubChem BioAssay AID1963576 (National Center for Advancing Translational Sciences (NCATS), 2024).
About 60 (0.1%) of roughly 46,000 compounds were called active. Inconclusive results (about 3%) are left out. The call rests on the fitted dose curve; in most records, active means well fitted inhibition curve with a large enough effect; inconclusive means small, poorly fitted or top-dose-only effect; inactive means no such curve, though single readings can be large or run the other way. This is one part of the list.

Assay: Primary qHTS assay for Inhibitors of ovarian cancer metastasis using an organotypic tumor microenvironment (TME) model. Further: nearly all actives have a fitted effect of over 65% in size.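 On activity change, negative = inhibition: plate controls were DMSO wells for no effect and tomatine positive control wells for full effect.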
Conditions: SKOV3ip1-GFP adhesion/invasion on 3D omental model, fluorescence; series mostly up to 45.8 µM; activity change, negative = inhibition: at the top concentration
Outline: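 qHTS, 4-pt dose (0.36-46 umol/L); SKOV3ip1-GFP, 1,200 cells/well, no FBS; primary omental fibroblast/mesothelial co-culture 48 h pre-grown; 2 h RT + 16 h 37 C; PBS wash, 4% PFA; GFP count 488/509 nm.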

Activity change, negative = inhibition, inactive:
CCOC(=O)c1c(NC(=O)COc2ccc(CC)cc2)sc2c1CCCC2 22.3%
COc1ccc(-n2c(=O)[nH]c3cc(C(=O)NCCc4ccc(Cl)cc4)ccc3c2=O)cc1OC -7.65%
Cc1ccc(OCC(=O)Nc2ccc3c(c2)sc(=O)n3C)cc1 -0.395%
Cc1nc2ccn(Cc3ccco3)c(=O)c2cc1C(=O)Nc1ccc(F)cc1 9.02%
CN1CCN(C(=O)Cn2c(-c3cccs3)cc3ccccc32)CC1 0.0919%
COc1cc(OC)cc(C(=O)Nc2ccc(-c3nc4ccccc4s3)c(C)c2)c1 1.15%
Cc1nn(C)c2c1c(C(F)(F)F)cc(=O)n2C(C)C(=O)NCCC(C)C (stereo not given) 17.1%
CCCNC(=O)c1ccc2c(c1)nc(C)n2-c1cccc(C)c1 -3.83%
Cc1ccc2c(=O)c(C(=O)c3ccccc3)cn(CC(=O)Nc3ccc(C)c(Cl)c3)c2n1 -0.568%
COc1ccc(NC(=O)C(NC(=O)C2CCC(C)CC2)C(C)C)cc1 (stereo not given) 8.28%
CCC(Sc1ncccc1C(=O)Oc1ccccc1Cl)C(=O)Nc1ccccc1OC (stereo not given) -2.62%
Cc1ccc(-c2nc(C(=O)N3CCN(c4ccccc4)CC3)c3n2CCCCC3)cc1 13.7%
CCS(=O)(=O)N1CCc2cc(C(=O)Nc3cc([N+](=O)[O-])ccc3C)ccc21 -15.5%
O=C(Nc1ccc(OC(F)(F)F)cc1)c1cc2c(=O)n3ccccc3nc2s1 6.53%
Cc1ccc(-n2c(SCC(=O)N3CCc4ccccc43)nc3c([nH]c4ccccc43)c2=O)cc1 3.11%
CCn1cc2nc(SCC(=O)Nc3cc(OC)ccc3OC)n(Cc3ccc(Cl)cc3)c(=O)c2n1 -0.707%
COc1cc(C2c3c(-c4cc(C)ccc4O)n[nH]c3C(=O)N2Cc2cccnc2)cc(OC)c1OC (stereo not given) 0.367%
Cn1c(=O)c(=O)n(C)c2cc(S(=O)(=O)N3CCCC3C(=O)Nc3cccc(F)c3)ccc21 (stereo not given) 1.29%
COc1ccc(C(=O)Nc2ccc3nc(SCC(=O)N4CCCC4)sc3c2)cc1 -5.83%
CCCC(=O)Nc1nnc(SCc2cc(=O)n3ccccc3n2)s1 -1.4%
COc1ccccc1CCNC(=O)Cn1ccc2cc(S(=O)(=O)N3CCCCC3)ccc21 -1.03%
O=C(CCn1c(=O)c2cccn2c2cccnc21)N1CCN(c2ccc(F)cc2)CC1 3.64%
Cc1ccccc1Cn1c(-c2cccs2)nc2ccccc21 -0.255%
COc1ccc(-c2noc(CN(C(=O)c3ccccc3Cl)C(C)C)n2)cc1 2.82%
CCCCn1c(CN2CCN(c3ccc(OC)cc3)CC2)nc2c1c(=O)[nH]c(=O)n2C 14.8%
Cc1cccc(NC(=O)CSc2nnc(CNC(=O)c3cccc(C)c3)n2-c2ccccc2)c1 6.74%
Cc1ccc(CNC(=O)C2CCN(Cc3nc(-c4ccccc4C)oc3C)CC2)cc1 2.88%
CCN(CCN(C)C)C(=O)Cn1ncc2c([nH]c3ccc(C)cc32)c1=O 3.98%
CN1CCN(c2c(F)cc3c(=O)c(C(=O)O)cn4c3c2OCN4C)CC1 2.2%
Cc1ccc(Cn2c(CN3CCC(C(=O)NCc4cccnc4)CC3)cc3ccccc32)cc1 -6.93%
CCOc1ccc(CNC(=O)CCC(=O)N2Cc3ccccc3Oc3ncccc32)cc1 4.38%
Cc1ccc2nc(CSc3nnc(NC(=O)CC(C)C)s3)cc(=O)n2c1 -3.3%
COc1ccc(OC)c(NC(=O)C2CCCN(S(=O)(=O)c3ccc4[nH]c(=O)ccc4c3)C2)c1 (stereo not given) -4%
CN1CC(=O)N(CC(=O)Nc2cccc(C#N)c2)c2ccccc2C1=O -8.73%
O=C(Nc1ccccc1C(F)(F)F)C1(S(=O)(=O)c2ccc(Cl)cc2)CC1 -3.62%
CC(=O)c1cccc(NC(=O)CCS(=O)(=O)c2ccc3c(c2)n(C)c(=O)c(=O)n3C)c1 -4.12%
NC(=O)CSc1nc2cc3c(cc2c(=O)n1CCCCCC(=O)NCc1ccc2c(c1)OCO2)OCO3 3.02%
COc1ccc(OC)c(NC(=O)CSc2c3c(nc4cc(Cl)ccc24)CCCC3)c1 -3.78%
CN(C1CCCCC1)S(=O)(=O)c1ccc2c(c1)c(=O)c(C(=O)N1CCN(c3ccc(F)cc3)CC1)cn2C -9.71%
CCOCCCNC(=O)C(NC(=O)C1CCC(C)CC1)C(C)C (stereo not given) 4.71%
Cc1ccc(C(=O)c2cn(Cc3cc(C)ccc3C)c3nc(C)ccc3c2=O)cc1 54.1%
CCCCCCNC(=O)CCc1c(C)nc2nc(-c3cc(OC)cc(OC)c3)nn2c1C 8.56%
Cc1c(Cl)cccc1NC(=O)Nc1nnc(N(C)C2CCCCC2)s1 -0.528%
Cc1ccc(CCNC(=O)c2cnc3c(C)cccn3c2=O)cc1 -5.32%
CCOC(=O)N1CCN(Cc2nc3cc(NC(=O)c4ccc(F)cc4)ccc3n2C(C)C)CC1 -7.1%
COc1ccc(-c2cn3c(n2)sc2cc(C(=O)NCC(C)c4ccccc4)ccc23)cc1 (stereo not given) -1.05%
CC(=O)Nc1ccc(NC(=O)C(NC(=O)C2CCC(C)CC2)C(C)C)cc1 (stereo not given) 5.11%
CCc1ccccc1NC(=O)c1nn(-c2ccc(C)cc2)c(=O)c2c1c1ccccc1n2C -0.308%
CCS(=O)(=O)n1nc(-c2ccco2)nc1NCc1ccc(C(C)C)cc1 12.7%
CC(C)c1cc(C(=O)NCc2ccc(F)cc2)no1 3.12%
CCc1ccc(Cn2nnc3c(=O)[nH]c(C4CCCN(C(=O)c5cccc(Cl)c5)C4)nc32)cc1 (stereo not given) -2.23%
Cc1ccc(-n2cnc3cc(C(=O)NC4CCCCCC4)ccc32)c(C)c1 -1.84%
CN(C)CCOc1ccc(C(=C(CCCl)c2ccccc2)c2ccccc2)cc1 5.13%
COc1ccc(C)cc1NC(=O)C1CCC(CNS(=O)(=O)c2ccc3c(c2)CCCC(=O)N3)CC1 (stereo not given) 16%
COc1cc(CN(C(=O)c2ccccc2Br)c2ccccn2)cc(OC)c1OC -0.359%
COc1ccc(S(=O)(=O)NCCc2sc(-c3cccnc3)nc2C)cc1OC -5.68%
CC(C)c1ccc(OCC(=O)Nc2cc(-c3ccccc3)no2)cc1 0.42%
CC(=O)c1c(C)n(S(=O)(=O)c2ccc(Cl)cc2)c2ccc(NS(=O)(=O)c3ccc(Cl)cc3)cc12 -3.71%
CCN(CC)C(=O)c1sc2c(c1C)c(=O)n(CCc1ccccc1)c(=O)n2Cc1ccc(C)cc1 35.7%
CCOc1cc2c(cc1OCC)C(CC(=O)OC)N(C(=O)Nc1cc(OC)ccc1OC)CC2 (stereo not given) -4.55%
COc1ccc2c(c1)c(=O)c(S(=O)(=O)c1ccc(Cl)cc1)cn2Cc1cc(C)ccc1C 7.37%
Cc1ccc(C)c(N2CCN(C(=O)CCS(=O)(=O)c3ccc4c(c3)oc(=O)n4C)CC2)c1 4.19%
Cc1ccc(NC(=O)CN2C(=O)C(c3ccc(C)cc3)=NC23CCCCCC3)cc1 -6.39%
CCc1ccc(NC(=O)c2cccc(N3CCCS3(=O)=O)c2)cc1 3.95%
CCN1CCSc2ccc(C(=O)NCc3ccc(F)cc3)cc21 -11.6%
CCCCNC(=O)c1cc(-c2cccnc2)nc2ccc(S(=O)(=O)NCCCC)cc12 -3.19%
COc1ccc(NCc2cccn2-c2nnc(N3CCOCC3)s2)cc1OC -9.2%
Cc1ccc(CNC(=O)CCSCc2cnn(-c3ccccc3)c2-n2cccc2)cc1 1.03%
COCCCNC(=O)c1nn(C)c2c1CS(=O)(=O)c1ccccc1-2 0.214%
CCc1cccc(NC(=O)Cc2nc(-c3ccc(OC)cc3)no2)c1 8.54%
O=C(CSc1nnc2[nH]c(=O)cc(-c3ccccc3)n12)Nc1ccc(OC(F)(F)F)cc1 -5.21%
COCc1cc(C)nc2sc3c(c12)NC(c1ccccc1C(=O)O)N(c1cccc(C(F)(F)F)c1)C3=O (stereo not given) -8.34%
COc1ccc(-c2cn3c(n2)sc2cc(C(=O)NC(C)C45CC6CC(CC(C6)C4)C5)ccc23)cc1 (stereo not given) -3.2%
Cc1cc(=O)n(Cc2c(F)cccc2Cl)c2c1c(C)nn2-c1cccc(F)c1 -1.95%
CCCSc1ncc(Cl)c(C(=O)Nc2sc(C(C)=O)c(C)c2C(=O)OCC)n1 13.7%
O=C(Cc1ccc(Cl)cc1)NCC(c1cccs1)S(=O)(=O)c1ccccc1 (stereo not given) -4.59%
CCOC(=O)C1CCN(S(=O)(=O)c2cc3c4c(c2)C(C)C(=O)N4CCC3)CC1 (stereo not given) -1.43%
CCn1ccc2c(OCC(=O)Nc3ccc(C)c(Cl)c3)cccc2c1=O 0.637%
CCN(CC)c1cc(C)c2cc(NC(=O)c3cc(OC)cc(OC)c3)ccc2n1 4.75%

outcome, inactive:
COc1ccc(NC(=O)Cn2nc(-c3ccccc3)c3cnc4ccc(C)cc4c32)cc1
Cc1ccc(N2C(=O)CS(=O)(=O)C23C(=O)N(Cc2ccccc2C)c2ccccc23)cc1Cl (stereo not given)
CCOc1ccccc1NC(=O)c1ccc2c(c1)CCN2S(C)(=O)=O
O=C(NC1CCCCC1)c1ccc2c(c1)N(Cc1ccccc1F)C(=O)c1ccccc1S2
O=C(Nc1ccc(F)cc1)c1ccc(CN2CC(=O)N3CCCCC3C2=O)cc1 (stereo not given)
Cc1cc(C)cc(NC(=O)Cn2nc(N3CCN(c4ccccc4)CC3)ccc2=O)c1
COc1ccc(CNC(=O)Cn2ncc3c(=O)oc4ccccc4c32)c(OC)c1
Cc1csc2nc(COC(=O)c3cccc(NC(=O)COc4ccccc4Cl)c3)cc(=O)n12
COc1cc([N+](=O)[O-])ccc1NC(=O)c1nc2ccccc2n(C)c1=O
COc1ccc(CNC(=O)CC2N=C3c4ccccc4N=C(SCC(=O)Nc4ccc(C(C)C)cc4)N3C2=O)cc1 (stereo not given)
COC(=O)CCCn1c(-c2ccc(C)cc2)c(C)n2c3c(=O)n(C)c(=O)n(C)c3nc12
Cc1ccc(S(=O)(=O)N(CC(=O)Nc2ccc(F)cc2F)Cc2ccc(F)cc2)cc1
Cc1cccc(C(=O)Nc2c(C(=O)N3CCN(c4ccc(F)cc4)CC3)oc3ccccc23)c1
Cc1onc(-c2ccccc2Cl)c1C(=O)Oc1ccccc1F
CC(C)(C)OC(=O)N1CCC(N2CCN(Cc3ccccc3)C(=O)C2=O)CC1
CCOc1ccc(NC(=O)C(CC(C)C)N2Cc3ccccc3C2=O)cc1 (stereo not given)
